Among all 360,000 compounds or so, about 7,500 (2.1%) were called active. The inconclusive results got no clear call from the source; some entries with a clear call stand among them for comparison. Calls follow the shape of the dose curve; as a rule, active = well fitted cell-killing curve with a large enough effect; inconclusive = small, poorly fitted or top-dose-only effect, or effect the other way, or another doubt; inactive = no such curve, though single readings can be large or run the other way. No potency is given beside an inconclusive call; the fits are too rough.
Test: qHTS for induction of synthetic lethality in tumor cells producing 2HG: qHTS for the HT-1080-IDH1KD cell line;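 as to activity, negative = toxicity: 0% = DMSO wells and -100% = cell-free medium wells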
Conditions: HT-1080 IDH1 knockdown viability, ATP luminescence, 48 h; activity, negative = toxicity: at 46.1 µM (top of the series) unless noted
Method in brief: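 Viability of IDH1-knockdown HT-1080 fibrosarcoma cells was assessed by CellTiter-Glo after 48 h at 37 °C with titrated compound; concentration-effect curves were classified by fit quality and response size.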
With Cc1ccccc1OC1C(=O)N(Cc2ccc3c(c2)OCO3)C1c1sccc1C (stereo not given) the Potency was active: 12.6 µM.
In the case of COc1ccccc1NC(=O)C1CCCN(C(=O)NCc2ccccc2)C1 (stereo not given), the “activity, negative = toxicity” value is reported as inactive: 6.07%.
With OC[C@@H]1[C@@H](c2ccc(Cl)cc2)C(c2ccccc2)=NN1c1ccccc1 the Potency was inconclusive [cytotoxic, single point].
For CC1CCc2[nH]c3ccc(C(=O)N(C)CC(=O)Nc4cccc(F)c4)cc3c2C1 (stereo not given), the Potency was inconclusive [cytotoxic, full curve, poor fit].
In the case of CCCn1c(SCC#N)nc2c(c1=O)C1(CCCC1)Cc1ccccc1-2, the Potency is reported as inconclusive [cytotoxic, single point].
For Clc1ccc(Nc2ncnc3ccc(Br)cc23)cc1, the Potency was inconclusive [cytotoxic, full curve].
With NC(=O)C1CCN(CC(=O)Nc2cccnc2Cl)CC1 the “activity, negative = toxicity” value was inactive: 19.9%.
In the case of CC(=O)Nc1ccc(-c2ccnc3c2CC(C(=O)Nc2cccc(Oc4ccccc4)c2)O3)cc1 (stereo not given), the Potency is reported as active: 14.6 µM.
With COc1ccc(/C=C2\SC(=S)N(CCCC(=O)Nc3ccc(O)cc3)C2=O)cc1 the Potency was inconclusive [cytotoxic, single point].
With COc1ccc(-c2cnnc(N/N=C/c3ccc(O)c(OC)c3)n2)cc1 the Potency was active: 5.17 µM.
In the case of Nc1nonc1C(=O)N/N=C/c1cccc([N+](=O)[O-])c1, the “activity, negative = toxicity” value is reported as inactive: 21.7%.
With O=C(NCCCN1CCOCC1)c1ccccc1N1C(=O)[C@@H]2Cc3c([nH]c4ccccc34)C(c3cccc(Cl)c3)N2C1=O (stereo not given in full) the Potency was inconclusive [cytotoxic, single point].
With Cc1ccc(-n2c(SCCN)nnc2-c2cccc(C)c2)cc1 the Potency was inconclusive [cytotoxic, single point].
In the case of CC(C)NC(=S)N=Nc1c(O)[nH]c2ccc([N+](=O)[O-])cc12, the Potency is reported as inconclusive [cytotoxic, single point].
For COc1ccccc1CN(C)C(=O)c1cc(-c2cc(OC)c(OC)c(OC)c2)nc2ccccc12, the Potency was active: 18.4 µM.
For CCOC(=O)c1c(-c2ccc(C)o2)csc1NC(=S)NC(=O)c1ccccc1Br, the Potency was inconclusive [cytotoxic, single point].
For CCOn1c(=O)c[n+]([O-])c2ccccc21, the “activity, negative = toxicity” value was inactive: 0.265%.
With COc1cc(-c2ccc3oc(-c4ccsc4)cc(=O)c3c2)cc(OC)c1OC the Potency was inconclusive [cytotoxic, single point].
With CC(C)N(Cc1ccccc1)C(=O)CC(=O)N(Cc1ccccc1)C(C)C the “activity, negative = toxicity” value was inactive: 14.1%.
With COc1cccc(N=CNc2cccc(OC)c2)c1 the Potency was inconclusive [cytotoxic, single point].
For Cc1ccc(C)c(-n2c(-c3ccc4c(c3)OCO4)n[nH]c2=S)c1, the Potency was inconclusive [cytotoxic, single point].
For CC1(C)CN(c2ccc(Br)cc2)C(=O)[C@H]1CC(=O)Nc1ccccc1, the “activity, negative = toxicity” value was inactive: -9.19%.
With CC(C)c1ccc(NC(=O)c2cccnc2)cc1 the activity, negative = toxicity was inactive: -0.349% [at 9.24 µM].
In the case of c1ccc(-c2nc(NCc3ccco3)c3ccccc3n2)nc1, the Potency is reported as inconclusive [cytotoxic, single point].
For Cc1ccc(-n2c(C)cc(/C=C(\C#N)C(=O)NCC3CCCO3)c2C)cc1 (stereo not given), the Potency was inconclusive [cytotoxic, single point].
In the case of CC1(C(=O)Nc2cccc(OC(F)(F)F)c2)Cc2c(-c3ccc4c(c3)OCO4)ccnc2O1 (stereo not given), the Potency is reported as active: 16.4 µM.
With CCCC(NC(=O)CCl)c1ccccc1 (stereo not given) the Potency was inconclusive [cytotoxic, single point].
For CCOC(=O)C1=C(c2ccccc2)OC(N)=C(C#N)C1c1ccc(Cl)s1 (stereo not given), the Potency was inconclusive [cytotoxic, single point].
With CC1(C(=O)NS(=O)(=O)c2ccc(Cl)cc2)CCN1C(=O)C1(c2ccccc2)CCCC1 (stereo not given) the “activity, negative = toxicity” value was inactive: -17.7%.
In the case of CCn1c(SCC(=O)N2CCCC2)nnc1-c1ccco1, the “activity, negative = toxicity” value is reported as inactive: -17.8%.
With CCCNc1nc(-c2ccccc2)c(C(=O)OCC)cc1C#N the Potency was inconclusive [cytotoxic, full curve].
In the case of COc1ccc(C(=O)N(C)c2ccccc2C(=O)NCCc2ccccc2)cc1, the Potency is reported as inconclusive [cytotoxic, single point].
For Cc1cc(NC(=O)CSc2nnc(-c3ccc(Cl)s3)o2)no1, the Potency was inconclusive [cytotoxic, single point].
With CC1(C(=O)Nc2ccccc2)CCN1C(=O)Cc1ccc(-c2ccccc2)cc1 (stereo not given) the Potency was inconclusive [cytotoxic, single point].
With CC(=O)Nc1ccc(S(=O)(=O)N2c3ccccc3C(C)=CC2(C)C)cc1 the Potency was active: 0.92 µM.
With CCCCN(C)CCNC(=O)c1cc2c(-c3ccccc3F)nn(C)c2s1 the Potency was inconclusive [cytotoxic, single point].
In the case of CN1CCC(N(C)S(=O)(=O)c2ccc(NC(=O)COc3ccc(Br)cc3Cl)cc2)CC1, the Potency is reported as active: 18.4 µM.
For O[C@@H]1CN(Cc2cccs2)[C@@H](c2ccccc2)C[C@H]1n1cc(-c2ccc(F)cc2)nn1, the Potency was inconclusive [cytotoxic, single point].
With CC(C)(C)S(=O)(=O)/C(C#N)=N/Nc1ccc(C#N)cc1 the Potency was inconclusive [cytotoxic, single point].
For CCC(C)(C)n1nnnc1C(c1ccc(O)c(OC)c1)N1CCc2ccccc2C1 (stereo not given), the Potency was inconclusive [cytotoxic, single point].
With O=C(Cc1cccs1)NNC(=S)NC(=O)c1ccco1 the Potency was inconclusive [cytotoxic, full curve, poor fit].
In the case of Cc1nc2c(OCc3ccc(F)cc3)cccn2c1N(C)C(=O)CCC1CCCC1, the Potency is reported as inconclusive [cytotoxic, single point].
With Cn1cc(C2NC(=O)c3ccccc3N2)c2ccccc21 (stereo not given) the Potency was active: 8.2 µM.
For O=C1CC(c2ccccc2)=NN1c1ccc([N+](=O)[O-])cc1, the Potency was active: 20.6 µM.
With CCOc1ccc(-c2cn[nH]c2N)cc1 the Potency was inconclusive [cytotoxic, single point].
For Fc1ccccc1C1c2[nH]c3ccccc3c2CCN1Cc1cccn1-c1ncccn1 (stereo not given), the Potency was inconclusive [cytotoxic, partial curve].
For CCOC(=O)/C(C#N)=C/c1cn(CCC(=O)O)nc1-c1ccc(Br)cc1, the “activity, negative = toxicity” value was inactive: -2.79%.
With CCOC(=O)[C@]12CCCC=C1N(Cc1ccc(Cl)cc1Cl)C(=O)[C@H](CC(=O)NCc1ccccc1)C2 the Potency was inconclusive [cytotoxic, single point].
In the case of COc1ccc(NC(=O)c2c(N)no[n+]2[O-])cc1, the Potency is reported as active: 0.731 µM.
With COc1ccc(CNC(=S)N/N=C/c2ccc(O)c(OC)c2)cc1 the Potency was inconclusive [cytotoxic, single point].
For CC(C)N(C#N)c1nc(N2CCOCC2)nc(N2CCOCC2)n1, the “activity, negative = toxicity” value was inactive: -9.71%.
For O=C(Nc1nc2ccccc2[nH]1)c1ccc(Br)o1, the Potency was inconclusive [cytotoxic, partial curve].
In the case of O=[N+]([O-])c1cc(S(=O)(=O)Nc2cccc(Cl)c2)ccc1N=Nc1c(O)[nH]c2ccccc12, the Potency is reported as inconclusive [rising, single point].
For Clc1ccc(OCCCNCc2ccccc2)c2ccccc12, the Potency was inconclusive [cytotoxic, partial curve].
For O=C(CSc1c2c(nc3ccc(Cl)cc13)CCCC2)N1CCN(C(=O)c2ccco2)CC1, the Potency was inconclusive [cytotoxic, single point].
In the case of COC(=O)c1ccccc1NC(=O)CN1CCC(n2nnc3cc(C(F)(F)F)ccc32)CC1, the “activity, negative = toxicity” value is reported as inactive: -2.47%.
For O=C(NCc1cccnc1)c1ccc(CS(=O)(=O)c2ccc(Cl)cc2)o1, the “activity, negative = toxicity” value was inactive: -3.49%.
For COc1cccc(C(=O)Nc2ccc(NC(=O)Cc3ccccc3)cc2)c1, the Potency was inconclusive [cytotoxic, single point].
With CCc1ccc2[nH]c(=O)c(C3C(C#N)=C(N)Oc4c3ccc3cccnc43)cc2c1 (stereo not given) the Potency was inconclusive [cytotoxic, single point].
In the case of Cc1cc(C)nc(-n2nc(C)cc2NC(=O)CN2CCC(C)CC2)n1, the “activity, negative = toxicity” value is reported as inactive: -6.28%.
For O=C(Nc1ccn(Cc2c(F)c(F)cc(F)c2F)n1)c1cccc(Cn2cc([N+](=O)[O-])cn2)c1, the Potency was inconclusive [cytotoxic, single point].
With Cc1ccc(C(=O)c2cc([N+](=O)[O-])ccc2N2CCOCC2)cc1 the Potency was active: 7.31 µM.
In the case of CC1Oc2ccccc2N(CC(=O)N2CCCc3ccccc32)C1=O (stereo not given), the Potency is reported as inconclusive [cytotoxic, single point].
For Fc1ccc(C(c2nnnn2C2CCCC2)N(Cc2ccco2)CC2CCCO2)cc1 (stereo not given), the Potency was inconclusive [cytotoxic, single point].
With Cc1cccc(OCC(=O)OC(C)CN2CCCCC2)c1 (stereo not given) the “activity, negative = toxicity” value was inactive: -0.469%.
For Cc1nn(CCOc2cccc(Br)c2)c(C)c1[N+](=O)[O-], the “activity, negative = toxicity” value was inactive: 1.25%.
With COc1ccc(-c2ccc3c(c2)C2CC3CCN2C(=O)C2CCCCC2)cc1 (stereo not given) the Potency was inconclusive [cytotoxic, single point].
In the case of COc1ccc(NC(=O)C2C3C=CC4(O3)C2C(=O)N(CCN2CCCCC2C)C4C(=O)NC2CCCCC2)cc1 (stereo not given), the “activity, negative = toxicity” value is reported as inactive: -16.4%.
For COc1ccccc1NS(=O)(=O)c1cccc(NC(=O)c2cncc(Br)c2)c1, the Potency was inconclusive [cytotoxic, partial curve].
For O=C(Cn1nnc(-c2ccccc2NC(=O)c2ccco2)n1)Nc1ccccc1, the Potency was inconclusive [cytotoxic, partial curve].
Potency is read from the fitted curve at half-maximal effect; tags tell the direction and shape of the fitted curve.
